{"source": "PubChem BioAssay (NCATS)", "assay": "Viability qHTS for spleen associated tyrosine kinase inhibitor (SYKi) drug resistant MV4-11 cells (AID 1963824); note: nearly all actives have a fitted effect of over 35% in size", "details": "SYKi-resistant MV4-11 viability, CellTiter-Glo, 72 h", "text": "Department of Medicine, Hematology/Oncology\nUniversity Hospital Frankfurt, Germany.\nTrials have shown promising clinical activity of the selective SYK inhibitor entospletinib in patients with high expressing HOXA9/MEIS1 acute leukemias. As the development of resistance mechanisms is a common problem in the use of targeted drugs, we performed a chemical library screen to identify drug sensitivities in SYK inhibitor resistant AML cells. […] Glucocorticoids are potent immunosuppressants which work in part by inhibiting the transcription of cytokine genes.\nDescribed herein is a viability screen to look for activity in the SYK inhibitor drug resistant cell line against four NCATS compound libraries (MIPE 5.0, NPC, NPACT, and Kinase) totaling 11372 compounds. Active hits were reacquired for confirmation and further secondary assay testing.\nSEQUENCE No. (e.g., 1, 2, 3, etc.); […] (e.g., Cells, Incubation, Reagent, etc.); VALUE; DESCRIPTION.\n1; Media; 2uL; white, solid-bottom Corning assay plate.\n2; Compounds; 23nL; Echo acoustic dispenser. […]\n7; Detection; Luminescence; ViewLux plate reader (PerkinElmer). […]\n1. Quantitative high-throughput screening (qHTS) of small molecule compounds was conducted on drug resistant SYKi MV4-11 cell line. […]\n5. Viability was assessed by adding 3uL of CellTiter-Glo detection reagent (Promega). […]\n7. Luminescence was measured on a ViewLux plate reader (PerkinElmer).", "note": "Records with an inconclusive call do not appear. Calls come from the whole dose curve; as a rule, active = well fitted cell-killing curve with a large enough effect; inconclusive = small, poorly fitted or top-dose-only effect, or effect the other way; inactive = no such curve, though single readings can be large or run the other way. A number of entries come with more than one value. This list holds those alone. There may be further records. The records of an entry are repeats (runs, samples, wells, individuals or studies). Potency is the fitted concentration of half-maximal effect."}
{"smiles": "C=C(c1ccc(C(=O)O)cc1)c1cc2c(cc1C)C(C)(C)CCC2(C)C", "values": [{"measurement": "Potency", "result": "active: 178 nM, 531 nM, 461 nM, 1.86 µM [separate samples]"}]}
